Data on eleven molecules can be found in paper PMC6018636, “Mutually exclusive acetylation and ubiquitylation of the splicing factor SRSF5 control tumor growth” (Nature Communications, 2018).

By UniProt entry, the sequences of proteins in these tests, tags left out. Where a name states a change or a piece, a line headed by the entry shows the natural chain unless it says otherwise. Chains listed by the source or under a name are the forms on record and can include a tag or linker.
UniProt Q13547: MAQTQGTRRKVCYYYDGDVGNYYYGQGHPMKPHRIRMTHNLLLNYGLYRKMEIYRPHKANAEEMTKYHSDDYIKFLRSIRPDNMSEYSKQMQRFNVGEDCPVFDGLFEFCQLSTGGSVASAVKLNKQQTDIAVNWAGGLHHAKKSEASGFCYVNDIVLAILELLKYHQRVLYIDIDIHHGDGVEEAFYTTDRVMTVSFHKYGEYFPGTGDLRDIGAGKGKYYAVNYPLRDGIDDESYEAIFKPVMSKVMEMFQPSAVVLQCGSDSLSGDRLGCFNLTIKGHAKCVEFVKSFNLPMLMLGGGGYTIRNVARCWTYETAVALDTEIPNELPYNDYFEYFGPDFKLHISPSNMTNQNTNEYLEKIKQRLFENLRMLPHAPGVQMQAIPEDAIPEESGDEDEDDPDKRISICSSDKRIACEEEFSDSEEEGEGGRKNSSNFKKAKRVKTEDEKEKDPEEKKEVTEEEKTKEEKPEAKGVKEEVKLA
UniProt Q9HCE7: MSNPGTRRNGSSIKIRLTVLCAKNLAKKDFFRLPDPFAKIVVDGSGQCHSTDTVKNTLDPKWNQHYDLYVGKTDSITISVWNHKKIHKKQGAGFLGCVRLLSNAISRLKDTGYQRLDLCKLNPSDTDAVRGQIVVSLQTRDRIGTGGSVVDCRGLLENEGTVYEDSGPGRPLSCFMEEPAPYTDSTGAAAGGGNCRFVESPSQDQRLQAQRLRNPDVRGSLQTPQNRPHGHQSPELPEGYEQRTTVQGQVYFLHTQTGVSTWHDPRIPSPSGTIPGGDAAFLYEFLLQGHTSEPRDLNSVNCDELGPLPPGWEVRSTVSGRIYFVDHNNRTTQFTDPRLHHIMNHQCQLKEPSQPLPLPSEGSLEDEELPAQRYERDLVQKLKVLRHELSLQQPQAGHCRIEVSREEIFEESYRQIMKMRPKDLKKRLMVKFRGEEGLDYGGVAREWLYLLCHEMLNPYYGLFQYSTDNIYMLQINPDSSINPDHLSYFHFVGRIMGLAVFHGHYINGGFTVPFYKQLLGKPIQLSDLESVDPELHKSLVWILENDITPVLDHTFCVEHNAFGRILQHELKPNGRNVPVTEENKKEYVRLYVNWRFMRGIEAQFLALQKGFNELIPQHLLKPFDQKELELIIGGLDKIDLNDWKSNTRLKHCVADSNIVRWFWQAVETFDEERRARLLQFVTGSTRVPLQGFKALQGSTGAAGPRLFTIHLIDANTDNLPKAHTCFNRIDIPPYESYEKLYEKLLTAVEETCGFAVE
Smurf1 (transfected, HEK293T, Fig. 7f) (Q9HCE7-2, form named): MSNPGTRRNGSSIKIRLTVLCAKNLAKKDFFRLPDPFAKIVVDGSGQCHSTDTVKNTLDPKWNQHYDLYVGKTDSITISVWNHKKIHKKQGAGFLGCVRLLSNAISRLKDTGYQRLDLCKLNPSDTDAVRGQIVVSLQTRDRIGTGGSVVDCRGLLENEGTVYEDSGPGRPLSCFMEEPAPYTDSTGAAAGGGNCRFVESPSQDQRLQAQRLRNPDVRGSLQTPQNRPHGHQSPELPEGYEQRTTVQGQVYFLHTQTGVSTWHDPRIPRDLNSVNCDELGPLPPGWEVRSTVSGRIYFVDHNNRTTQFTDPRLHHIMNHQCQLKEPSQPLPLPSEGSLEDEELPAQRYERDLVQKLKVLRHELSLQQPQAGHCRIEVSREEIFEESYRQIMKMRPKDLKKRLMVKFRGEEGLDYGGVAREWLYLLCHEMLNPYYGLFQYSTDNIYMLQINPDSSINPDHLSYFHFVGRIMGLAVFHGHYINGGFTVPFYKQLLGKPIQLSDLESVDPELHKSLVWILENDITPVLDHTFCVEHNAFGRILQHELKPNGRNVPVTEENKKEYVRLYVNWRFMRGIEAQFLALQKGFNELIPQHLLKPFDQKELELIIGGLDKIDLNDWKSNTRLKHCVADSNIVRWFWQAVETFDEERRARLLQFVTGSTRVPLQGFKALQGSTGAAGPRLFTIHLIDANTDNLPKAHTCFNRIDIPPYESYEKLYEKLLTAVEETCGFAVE
UniProt Q92993: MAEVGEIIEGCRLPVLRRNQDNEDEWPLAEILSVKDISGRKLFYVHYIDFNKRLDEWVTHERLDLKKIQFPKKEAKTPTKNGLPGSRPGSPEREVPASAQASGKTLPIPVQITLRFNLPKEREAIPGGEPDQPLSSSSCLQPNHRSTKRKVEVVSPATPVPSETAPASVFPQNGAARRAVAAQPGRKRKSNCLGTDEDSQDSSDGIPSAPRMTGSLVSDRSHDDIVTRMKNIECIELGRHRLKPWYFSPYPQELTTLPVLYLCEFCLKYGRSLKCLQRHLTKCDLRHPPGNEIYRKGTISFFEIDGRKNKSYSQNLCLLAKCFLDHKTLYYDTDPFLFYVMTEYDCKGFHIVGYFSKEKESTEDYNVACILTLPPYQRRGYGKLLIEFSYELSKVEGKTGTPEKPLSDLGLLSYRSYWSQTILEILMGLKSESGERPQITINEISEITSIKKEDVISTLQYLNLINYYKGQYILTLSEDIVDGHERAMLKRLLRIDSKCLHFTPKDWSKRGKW
UniProt P98175: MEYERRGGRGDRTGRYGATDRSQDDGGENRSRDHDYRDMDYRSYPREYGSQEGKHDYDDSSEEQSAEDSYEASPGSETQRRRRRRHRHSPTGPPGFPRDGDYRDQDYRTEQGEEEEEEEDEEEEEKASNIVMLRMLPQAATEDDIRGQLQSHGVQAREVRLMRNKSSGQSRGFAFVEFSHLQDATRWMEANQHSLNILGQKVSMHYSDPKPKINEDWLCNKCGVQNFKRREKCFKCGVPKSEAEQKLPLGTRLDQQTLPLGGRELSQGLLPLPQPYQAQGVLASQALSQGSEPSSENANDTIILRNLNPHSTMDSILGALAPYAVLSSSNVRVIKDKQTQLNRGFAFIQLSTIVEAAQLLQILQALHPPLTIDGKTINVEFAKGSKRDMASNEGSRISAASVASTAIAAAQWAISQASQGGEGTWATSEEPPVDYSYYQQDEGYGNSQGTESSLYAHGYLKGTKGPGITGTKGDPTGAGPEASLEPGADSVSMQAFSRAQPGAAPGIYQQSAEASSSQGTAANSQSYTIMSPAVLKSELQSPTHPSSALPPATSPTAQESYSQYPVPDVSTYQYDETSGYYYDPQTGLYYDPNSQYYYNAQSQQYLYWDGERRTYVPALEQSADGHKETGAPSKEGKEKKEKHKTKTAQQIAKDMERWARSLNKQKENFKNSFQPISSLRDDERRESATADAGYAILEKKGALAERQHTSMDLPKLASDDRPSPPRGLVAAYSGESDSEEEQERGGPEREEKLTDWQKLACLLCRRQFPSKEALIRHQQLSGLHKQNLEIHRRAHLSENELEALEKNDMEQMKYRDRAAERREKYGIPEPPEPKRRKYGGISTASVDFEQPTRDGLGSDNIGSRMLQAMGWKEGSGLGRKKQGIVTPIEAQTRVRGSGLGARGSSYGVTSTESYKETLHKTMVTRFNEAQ
UniProt Q13620: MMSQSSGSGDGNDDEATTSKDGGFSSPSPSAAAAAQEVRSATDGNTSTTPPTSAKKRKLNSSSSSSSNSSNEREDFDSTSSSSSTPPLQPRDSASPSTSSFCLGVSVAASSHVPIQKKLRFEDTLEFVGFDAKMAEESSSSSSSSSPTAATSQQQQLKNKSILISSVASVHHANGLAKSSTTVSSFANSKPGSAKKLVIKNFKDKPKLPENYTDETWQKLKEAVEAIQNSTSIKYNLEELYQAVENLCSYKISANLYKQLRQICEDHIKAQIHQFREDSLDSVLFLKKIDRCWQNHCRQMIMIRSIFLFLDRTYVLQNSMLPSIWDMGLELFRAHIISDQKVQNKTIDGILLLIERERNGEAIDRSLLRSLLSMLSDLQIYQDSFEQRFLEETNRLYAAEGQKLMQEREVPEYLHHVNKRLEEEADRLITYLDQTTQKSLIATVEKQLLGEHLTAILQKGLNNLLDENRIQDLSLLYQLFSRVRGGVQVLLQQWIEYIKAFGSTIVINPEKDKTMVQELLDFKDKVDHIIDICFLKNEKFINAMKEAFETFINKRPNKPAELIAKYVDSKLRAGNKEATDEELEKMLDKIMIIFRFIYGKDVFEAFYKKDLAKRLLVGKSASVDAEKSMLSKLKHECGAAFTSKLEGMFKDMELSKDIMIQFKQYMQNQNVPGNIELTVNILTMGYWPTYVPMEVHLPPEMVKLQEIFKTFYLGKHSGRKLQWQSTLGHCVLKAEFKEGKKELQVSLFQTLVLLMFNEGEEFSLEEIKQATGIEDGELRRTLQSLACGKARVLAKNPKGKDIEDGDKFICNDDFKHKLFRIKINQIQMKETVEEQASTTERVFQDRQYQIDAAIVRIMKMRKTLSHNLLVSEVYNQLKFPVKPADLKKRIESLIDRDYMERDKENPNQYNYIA

Experiment [1] deals with T1, Flag-CCAR1L (long isoform of cell cycle and apoptosis regulator 1) (human) (UniProt Q8IX12).
T1 sequence: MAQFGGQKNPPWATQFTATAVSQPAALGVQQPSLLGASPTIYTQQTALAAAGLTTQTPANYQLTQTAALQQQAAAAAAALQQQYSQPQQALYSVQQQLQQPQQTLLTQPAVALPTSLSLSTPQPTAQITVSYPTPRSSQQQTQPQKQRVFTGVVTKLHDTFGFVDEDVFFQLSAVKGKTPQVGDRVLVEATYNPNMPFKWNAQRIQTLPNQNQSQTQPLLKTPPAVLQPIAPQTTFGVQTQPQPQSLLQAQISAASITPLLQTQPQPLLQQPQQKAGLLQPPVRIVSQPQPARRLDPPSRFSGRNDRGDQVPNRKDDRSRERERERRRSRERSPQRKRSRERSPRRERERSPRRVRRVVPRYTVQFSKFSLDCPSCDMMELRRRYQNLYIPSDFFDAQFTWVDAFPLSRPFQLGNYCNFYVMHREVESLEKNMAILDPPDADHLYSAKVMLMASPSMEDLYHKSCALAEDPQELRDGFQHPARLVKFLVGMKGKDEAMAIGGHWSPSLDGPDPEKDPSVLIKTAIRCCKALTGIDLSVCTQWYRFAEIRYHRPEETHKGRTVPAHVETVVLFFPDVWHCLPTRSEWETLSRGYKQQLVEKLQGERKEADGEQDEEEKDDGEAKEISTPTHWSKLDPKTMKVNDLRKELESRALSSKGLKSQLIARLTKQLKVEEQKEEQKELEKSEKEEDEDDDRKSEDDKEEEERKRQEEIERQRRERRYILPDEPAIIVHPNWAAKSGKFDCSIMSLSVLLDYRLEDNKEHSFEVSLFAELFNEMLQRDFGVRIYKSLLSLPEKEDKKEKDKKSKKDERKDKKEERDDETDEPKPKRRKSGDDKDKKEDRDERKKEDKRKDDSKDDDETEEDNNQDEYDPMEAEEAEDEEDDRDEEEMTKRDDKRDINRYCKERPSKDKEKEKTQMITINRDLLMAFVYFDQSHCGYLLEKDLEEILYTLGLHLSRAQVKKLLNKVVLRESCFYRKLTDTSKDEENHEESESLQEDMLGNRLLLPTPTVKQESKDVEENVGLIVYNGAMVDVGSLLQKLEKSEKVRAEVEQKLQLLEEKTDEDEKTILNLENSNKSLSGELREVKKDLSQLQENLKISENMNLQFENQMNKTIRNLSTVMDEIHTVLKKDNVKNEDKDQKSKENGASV
As to the kind of experiment: co-IP; lysates of transfected A549 cells, immunoprecipitation with the indicated antibodies and immunoblotting; for Myc-SRSF5 with Flag-Tip60 the cells were at 2.5 or 25 mM glucose. (A western blot detects proteins with antibodies after separation by electrophoresis.)

Experiment [2] has as its target T2, SRSF5 wild type (transfected, HEK293T, Fig. 7f) (UniProt Q13243).
T2 sequence: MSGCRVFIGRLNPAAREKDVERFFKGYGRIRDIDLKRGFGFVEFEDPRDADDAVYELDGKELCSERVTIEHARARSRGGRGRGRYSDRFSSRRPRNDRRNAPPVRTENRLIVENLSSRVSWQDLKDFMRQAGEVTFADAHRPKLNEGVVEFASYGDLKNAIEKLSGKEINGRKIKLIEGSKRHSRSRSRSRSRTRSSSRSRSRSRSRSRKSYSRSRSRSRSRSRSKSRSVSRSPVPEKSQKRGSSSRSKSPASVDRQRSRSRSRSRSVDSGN
Kind of experiment: co-IP; lysates of transfected HEK293T cells, IP-western; Fig. 7f with or without Tip60 knock-down; Fig. 8i at different glucose concentrations.

The target in experiment [3] is T3, SRSF5 K125R (transfected, HEK293T) (UniProt Q13243).
T3 sequence: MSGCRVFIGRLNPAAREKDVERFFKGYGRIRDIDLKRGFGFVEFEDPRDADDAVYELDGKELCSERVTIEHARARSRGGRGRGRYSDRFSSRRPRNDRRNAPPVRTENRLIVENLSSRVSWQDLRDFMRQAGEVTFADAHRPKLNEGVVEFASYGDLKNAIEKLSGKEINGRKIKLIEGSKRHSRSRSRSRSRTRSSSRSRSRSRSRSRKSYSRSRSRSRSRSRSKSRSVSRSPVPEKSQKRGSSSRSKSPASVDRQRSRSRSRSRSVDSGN
The experiment is described as above.

The target in another experiment is T4, Myc-SRSF5 (in A549) (UniProt Q13243).
T4 sequence: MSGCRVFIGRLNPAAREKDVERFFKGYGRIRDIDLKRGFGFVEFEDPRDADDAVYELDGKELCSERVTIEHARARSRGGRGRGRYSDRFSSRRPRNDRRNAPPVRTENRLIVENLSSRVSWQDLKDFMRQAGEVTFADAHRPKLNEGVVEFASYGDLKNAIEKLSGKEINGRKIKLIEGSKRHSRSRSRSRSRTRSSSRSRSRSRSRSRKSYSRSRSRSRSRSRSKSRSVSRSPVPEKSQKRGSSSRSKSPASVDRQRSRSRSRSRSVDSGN
As to the kind of experiment: co-IP; lysates of transfected A549 cells, immunoprecipitation with the indicated antibodies and immunoblotting; for Myc-SRSF5 with Flag-Tip60 the cells were at 2.5 or 25 mM glucose.

Experiment [4] concerns the target T5, SRSF5 (endogenous) (human (endogenous in A549)) (UniProt Q13243).
T5 sequence: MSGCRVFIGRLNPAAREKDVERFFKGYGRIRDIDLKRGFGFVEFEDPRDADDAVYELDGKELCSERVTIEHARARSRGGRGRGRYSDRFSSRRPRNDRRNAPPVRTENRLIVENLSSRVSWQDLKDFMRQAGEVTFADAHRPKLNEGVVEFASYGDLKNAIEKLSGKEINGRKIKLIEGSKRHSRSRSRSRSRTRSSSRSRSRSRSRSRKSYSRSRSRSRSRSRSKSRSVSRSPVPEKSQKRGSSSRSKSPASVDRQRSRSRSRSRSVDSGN
As to the kind of experiment: co-IP; endogenous proteins, A549 cells at the indicated glucose concentrations (cells of Fig. 8h not named); immunoprecipitation and immunoblotting.

Experiment [5] concerns the target HDAC1 (endogenous) (human (endogenous in A549)) (UniProt Q13547). The description is as above.
The target of a further experiment is HA-HDAC1 (UniProt Q13547). Kind of experiment: co-IP; lysates of transfected HEK293T cells, IP-western; Fig. 7f with or without Tip60 knock-down; Fig. 8i at different glucose concentrations.

These are yes or no findings as the source states them, for the method shown. In cells and extracts the contact can be indirect. Some binding calls cover weakened binding; strength is not graded here. For part of these data: Tags and fused reporters may be left off the sequences shown.

On to hnRNPK (from UniProt P61978 1-463), for which the binding entry in experiment [1] is reported as “no binding”.

With “Smurf1 (transfected, HEK293T, Fig. 7f) (from UniProt Q9HCE7-2 1-731) (enzyme)”, the binding entry in experiment [2] and in experiment [3] was “binds” throughout. On to “Flag-Tip60 (from UniProt Q92993 1-513) (enzyme)”, for which the binding entry with Myc-SRSF5 (in A549) is recorded as “binds”. With “RBM10 (transfected) (from UniProt P98175 1-930)”, the binding result in experiment [1] is recorded as “binds”. Consider Cullin 4B (from UniProt Q13620 1-913), for which the binding result in experiment [1] is recorded as “no binding”.

Turning to p53 (from UniProt P04637 1-393), in experiment [1], the binding entry is recorded as “binds”. Regarding “Tip60 (endogenous) (from UniProt Q92993 1-513) (enzyme)”, the binding entry in experiment [4] is “binds”.

In the case of “Smurf1 (endogenous) (from UniProt Q9HCE7 1-757) (enzyme)”, in experiment [4], the binding result is “binds”.

B1: SRSF5 (endogenous) (protein, UniProt Q13243 1-272)
chain: MSGCRVFIGRLNPAAREKDVERFFKGYGRIRDIDLKRGFGFVEFEDPRDADDAVYELDGKELCSERVTIEHARARSRGGRGRGRYSDRFSSRRPRNDRRNAPPVRTENRLIVENLSSRVSWQDLKDFMRQAGEVTFADAHRPKLNEGVVEFASYGDLKNAIEKLSGKEINGRKIKLIEGSKRHSRSRSRSRSRTRSSSRSRSRSRSRSRKSYSRSRSRSRSRSRSKSRSVSRSPVPEKSQKRGSSSRSKSPASVDRQRSRSRSRSRSVDSGN
For the molecule B1, the binding result in experiment [5] is “binds”.

B2: Flag-SRSF5 (in HEK293T) (protein, UniProt Q13243 1-272)
chain: MSGCRVFIGRLNPAAREKDVERFFKGYGRIRDIDLKRGFGFVEFEDPRDADDAVYELDGKELCSERVTIEHARARSRGGRGRGRYSDRFSSRRPRNDRRNAPPVRTENRLIVENLSSRVSWQDLKDFMRQAGEVTFADAHRPKLNEGVVEFASYGDLKNAIEKLSGKEINGRKIKLIEGSKRHSRSRSRSRSRTRSSSRSRSRSRSRSRKSYSRSRSRSRSRSRSKSRSVSRSPVPEKSQKRGSSSRSKSPASVDRQRSRSRSRSRSVDSGN
B2: the binding result in the experiment with HA-HDAC1 is “binds”.

B3: GSDMA (transfected) (protein, UniProt Q96QA5 1-445)
chain: MTMFENVTRALARQLNPRGDLTPLDSLIDFKRFHPFCLVLRKRKSTLFWGARYVRTDYTLLDVLEPGSSPSDPTDTGNFGFKNMLDTRVEGDVDVPKTVKVKGTAGLSQNSTLEVQTLSVAPKALETVQERKLAADHPFLKEMQDQGENLYVVMEVVETVQEVTLERAGKAEACFSLPFFAPLGLQGSINHKEAVTIPKGCVLAFRVRQLMVKGKDEWDIPHICNDNMQTFPPGEKSGEEKVILIQASDVGDVHEGFRTLKEEVQRETQQVEKLSRVGQSSLLSSLSKLLGKKKELQDLELALEGALDKGHEVTLEALPKDVLLSKEAVGAILYFVGALTELSEAQQKLLVKSMEKKILPVQLKLVESTMEQNFLLDKEGVFPLQPELLSSLGDEELTLTEALVGLSGLEVQRSGPQYMWDPDTLPRLCALYAGLSLLQQLTKAS
With B3, the binding result in experiment [1] is “binds”.
